Here are results for 2 proteins from doi:10.1101/2024.12.10.627716 (bioRxiv, 2024).

The data set deals with the molecule itself. The data set is described as follows: SEC. A general note: Size exclusion chromatography separates by hydrodynamic size, large species first.

B1: PRMT1 H296A, purified recombinant (enzyme)
chain: not shown
The term stoichiometry N denotes the number of molecules, sites or subunits per partner or assembly. For B1, the “stoichiometry N” value came to 2.

B2: PRMT1 Y280A, purified recombinant (enzyme)
chain: not shown
As to B2, the “stoichiometry N” value worked out at 2.
